Reference: the supplement of paper PMC3334620
In all, about 33,000 sequences were measured (“E-score (-0.5 to 0.5)”: median about -0.054, highest 2% from about 0.39 on). This is one part of the list.

Target: Ylr278c (UniProt Q05854)
Assay: PBM E-score (8-mer binding enrichment) (E-score (-0.5 to 0.5)); higher = stronger / more preferred TF binding; most listed sequences are background and not binding sites
Conditions: protein concentration: 200 nM; construct: GST-DNA-binding domain
In short: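 Full-length yeast transcription factors or their DNA-binding domains, GST-tagged and expressed with PURExpress, were applied at about 100-200 nM to universal all-10-mer Agilent arrays. These arrays had been made double-stranded by primer extension on fresh or once-stripped slides. Detection used fluorescent anti-GST, normalisation used masliner, and E-scores for ungapped eight-base words pooled with reverse complements came from the Universal PBM Analysis Suite.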

Sequence | PBM E-score
AGATCGTG | -0.188
AAGGCCCA | -0.183
CACGCATG | -0.16
AATCATCT | 0.0277
CCCCCAGC | -0.226
CATACCGA | 0.056
AGACCTGC | -0.33
AACCGAAA | 0.0213
AAGACTTA | -0.366
AGTCTGCC | -0.222
GGTCCCAA | -0.163
CGACTGGA | -0.012
AAGCAGGA | 0.0618
CCATATGG | -0.116
GGCCTTAA | -0.0388
TCTGCCAA | -0.313
GGGCTGTA | -0.0874
TACCGGTA | 0.246
AGACGATA | -0.0594
AATGCGGA | 0.396
CTGAGTCA | -0.19
AACCAAGT | -0.134
ATGTGACC | -0.00885
ATGAGAGA | -0.154
AGCTAGAT | -0.213

Sequence | PBM E-score
ATAGGAGA | -0.226
GGCCGTAA | 0.209
CCCCTTGA | -0.0701
TAGGTTCA | -0.0318
ATCCACAC | -0.0734
TACTTCCA | -0.0154
AAGTGTCG | -0.00145
CGTCGGTC | 0.215
ACTAATCG | 0.267
CGCGCTAG | 0.0561
GAGCACGA | 0.0527
GATGATCA | -0.155
GCCATACA | -0.187
ACTAGGGG | -0.17
TGCCTACA | -0.111
GTGGTTAA | -0.13
GCGGGGAC | 0.22
CGTCGTGC | 0.0368
AGGTATAA | -0.0496
AATGTAAA | 0.00046
GTTAGCTA | -0.125
CCGGAATA | 0.434
GTTAAGCA | 0.0147
GCAGACAC | -0.0251
ATCAAATG | 0.058

Sequence | PBM E-score
AGAATGCA | 0.0461
CGGCATGC | 0.279
CGAAAGCA | 0.0148
GACTTCTC | 0.0304
CATTGTCA | -0.116
ATAGGGTC | -0.0639
AGGTAGAC | -0.0819
CCAACCCC | 0.114
ACCATTAC | -0.00509
CAACGTGG | -0.187
TGCACCCA | -0.0149
ATTCACTA | 0.00726
GAGCGGAC | 0.321
TATATCGA | 0.0532
CTCGCGTA | -0.0309
GATGTGGC | -0.106
GTGTACCA | -0.298
CCAGGACC | -0.0892
CGTAAGAC | -0.196
GCGTCCCA | -0.0879
AAAGCCCT | -0.219
TAGTATAA | 0.0315
ATCTGGGG | -0.196
TGAAACAA | -0.0449
TACGCAGA | -0.0137

Sequence | PBM E-score
AACCTCCG | 0.466
CGAGGCCC | 0.129
GGACAACC | 0.087
ATCCATGC | -0.131
CCAACGTA | -0.311
CCCTGAGA | -0.258
ACTGTGCC | -0.202
AAGATCCG | 0.333
GGTTTAGA | -0.0635
CTAACGAC | -0.243
ACGTGTAT | -0.0891
AACACTAG | -0.14
ATACGGCA | 0.112
CCGCGCTA | 0.153
ATCCTCTG | -0.134
AATTGCAT | -0.0174
CTAGATAA | -0.202
CGAAGTAA | 0.0385
GCGATACA | -0.0735
ATGGCCCC | 0.00489
ACATCTGA | -0.165
ATATCAAT | -0.0864
CAGAATTA | 0.0511
CAGTGGCA | -0.225
AGGGATGA | -0.111

Sequence | PBM E-score
ACAAATGT | 0.0363
CAGCAAGG | -0.222
GAGGAAGA | -0.0737
GTTCCATA | -0.0162
ATACTAGA | -0.0205
TTCCAAAA | -0.186
CGCGGGTA | 0.154
AACGACTG | -0.263
AGCTGCAT | -0.232
CACCTACG | -0.0133
AAATTTCC | 0.169
AGTAGGAT | -0.0817
ATGAGTTA | -0.204
ATTGTGCC | -0.105
CAAAGTCG | -0.186
AGTGGTAG | -0.279
GCGCGAAC | 0.132
ATGGTAGG | -0.127
CAGTACGA | -0.107
CTAGATTA | -0.172
ACCGAAAC | 0.185
TCCAACGA | -0.305
CTTAGGGC | -0.0271
AACGGGAT | 0.304
CTATAAAC | 0.0436

Sequence | PBM E-score
CTACGCCC | -0.133
TAGTTCGA | -0.231
AGTAGGGC | 0.0867
CCACCAGG | -0.143
ACCCTTTG | -0.0318
CGTTTTAC | 0.00074
GTGAGTAA | -0.219
ATTAAATC | 0.0829
ATTGATTA | 0.0333
GTATAATA | 0.0966
ACGTCGCC | -0.0817
ACCGGGGG | 0.293
GTCCTAAA | -0.00678
TACAGGCA | -0.178
GTGTACAC | -0.163
CGTGTTAC | 0.0429
AGGGCATA | -0.23
GACGTAGA | -0.185
CAATGTAG | 0.0845
AGGTCACC | -0.0994
AGCCAGAG | -0.0653
AGATCATG | -0.203
ACGCCGGG | 0.365
ACCCAGCT | -0.0898
CCTGTCTC | -0.133

Sequence | PBM E-score
AAGTGCAC | 0.0384
AATAATAC | -0.0178
ACACGCTA | -0.0117
GCGACTTA | -0.0341
AGTCATGA | -0.017
CTCCGTAC | 0.358
CGATAAAG | 0.128
CGCTAAGC | 0.00246
AGGACTGA | -0.0689
AGTCATTA | -0.219
ACAGAGAC | 0.0175
ACACTCGC | 0.075
CGGTGGTA | 0.0617
GTAGGTCA | -0.158
GAGTTGGA | 0.00758
GACATCCA | -0.163
GCCAATCA | -0.267
GAGGCAGC | -0.115
ACCTGCAC | -0.0901
CATATCGC | 0.0136
GGGGGAAC | -0.12
GAAATTGC | 0.089
